Measured values from article PMC4336329 (PLoS ONE, 2015).
The whole screen tested about 310,000 compounds, of which about 14,000 (4.5%) showed an effect of 50% or more. Effects have a minus sign here. The list shows a part of the results.

Molecular target: human ether-à-go-go-related gene (hERG) potassium channel (human, UniProt Q12809)
Test: primary screen, population patch clamp on CHO cells stably expressing hERG
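Further: peak tail current of the secondary pulse compared with the same well before compound.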

Sequence of human ether-à-go-go-related gene (hERG) potassium channel (Q12809 whole entry, looked up): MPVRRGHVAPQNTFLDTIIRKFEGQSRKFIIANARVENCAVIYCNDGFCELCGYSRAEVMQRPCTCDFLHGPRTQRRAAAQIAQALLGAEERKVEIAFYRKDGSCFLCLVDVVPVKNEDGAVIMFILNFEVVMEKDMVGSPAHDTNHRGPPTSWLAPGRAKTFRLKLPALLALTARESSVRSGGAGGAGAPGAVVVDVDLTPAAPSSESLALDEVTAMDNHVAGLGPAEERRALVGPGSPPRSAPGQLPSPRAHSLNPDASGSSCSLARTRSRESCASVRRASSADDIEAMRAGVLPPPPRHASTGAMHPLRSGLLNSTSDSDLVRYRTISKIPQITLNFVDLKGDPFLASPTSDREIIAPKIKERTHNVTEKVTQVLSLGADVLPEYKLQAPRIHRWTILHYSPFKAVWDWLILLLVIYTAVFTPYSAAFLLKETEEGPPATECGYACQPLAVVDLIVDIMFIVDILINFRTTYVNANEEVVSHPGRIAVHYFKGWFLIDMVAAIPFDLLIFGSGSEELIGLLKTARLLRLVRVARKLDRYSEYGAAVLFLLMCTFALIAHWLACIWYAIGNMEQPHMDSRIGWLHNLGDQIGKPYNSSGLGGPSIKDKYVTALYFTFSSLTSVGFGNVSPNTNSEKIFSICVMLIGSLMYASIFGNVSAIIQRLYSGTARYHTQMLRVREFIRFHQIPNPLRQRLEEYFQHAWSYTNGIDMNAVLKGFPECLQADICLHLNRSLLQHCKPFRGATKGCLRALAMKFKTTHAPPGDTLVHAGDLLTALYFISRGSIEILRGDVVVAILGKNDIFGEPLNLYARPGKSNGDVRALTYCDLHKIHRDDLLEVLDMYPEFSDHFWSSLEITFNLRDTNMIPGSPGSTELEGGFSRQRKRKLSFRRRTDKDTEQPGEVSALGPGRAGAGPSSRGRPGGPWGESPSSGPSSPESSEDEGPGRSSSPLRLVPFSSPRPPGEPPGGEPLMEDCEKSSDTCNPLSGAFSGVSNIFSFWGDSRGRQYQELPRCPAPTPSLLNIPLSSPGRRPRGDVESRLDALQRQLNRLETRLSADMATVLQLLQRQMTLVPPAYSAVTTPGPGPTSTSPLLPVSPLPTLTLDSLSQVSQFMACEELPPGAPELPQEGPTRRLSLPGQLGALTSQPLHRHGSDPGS

Structure (SMILES) | hERG current change (%, negative = inhibition) at 10uM [%]
CCn1nc(NS(=O)(=O)c2ccc(NC(C)=O)cc2)c2cc3ccc(C)cc3nc21 | 4.59
CCc1ccc(C(=O)N/N=C/c2ccncc2)s1 | 1.7
COc1cc(SC)ccc1C(=O)Nc1ncc(Cl)cc1Cl | 3.04
O=C(NCC1CCCN1S(=O)(=O)c1cccs1)c1ccccc1 (centres unmarked) | 16.5
O=C(Nc1cccnc1)OCc1ccccc1 | 5.19
CC1Cc2ccccc2N1C(=O)c1ccc(N2CCCCC2)c([N+](=O)[O-])c1 (centres unmarked) | 2.86
Cc1ccccc1C1NC(c2ccccc2C)C(C)C(=O)C1C (centres unmarked) | 15.8
CC1CCCN(C(=O)c2ccc(Cl)c(S(=O)(=O)N3CCCCCC3)c2)C1 (centres unmarked) | -76.3
O=S(=O)(Nc1ccccc1F)c1ccc2nsnc2c1 | -19.9
Cc1ccc(C(=O)NC(=S)NCc2cccnc2)cc1C | -33
Cc1ccc(NC(=O)c2sc3ncnc(N4CCN(c5ccccn5)CC4)c3c2C)c(C)c1 | -48.4
O=c1[nH]c(=O)n(Cc2ccco2)c2c1C(C(F)(F)F)(C(F)(F)F)N=C(c1ccc(F)cc1)N2 | 1.16
O=C1C2CCCN2C(c2ccc(Cl)cc2)N1c1nccs1 (centres unmarked) | -0.11
Cc1ccc(N(Cc2ccc([N+](=O)[O-])cc2)C(=O)c2ccco2)cc1C | -24.1
COc1ccccc1N1CCN(C(c2ccc(C)cc2)c2nnnn2C(C)C)CC1 (centres unmarked) | -5.61
CCCc1c(C(=O)OCC)sc(N)c1C#N | 20.9
Cc1ccc(S(=O)(=O)NCCC(=O)NCCN2CCCCCC2)cc1 | 5.11
COc1cc(C(c2c(O)c3ccccc3oc2=O)c2c(C)n(C)n(-c3ccccc3)c2=O)ccc1O (centres unmarked) | 24
CCOCCCNS(=O)(=O)c1ccc(NC(=O)c2ccc([N+](=O)[O-])cc2Cl)cc1 | -22.3
CC1(C)O[C@@H]2[C@@H](CO[C@@]3(COS(N)(=O)=O)OC(C)(C)O[C@@H]23)O1 | 13.9
CCCc1cc(-c2n[nH]c(=S)n2Cc2ccccc2)cs1 | -15
COc1ccc(CNC(=O)C2CCN(S(=O)(=O)c3c(C)n[nH]c3C)CC2)cc1 | 17.5
CC(C)CCn1c(N2CCCC2)nc2c1c(=O)[nH]c(=O)n2C | 6.71

Structure (SMILES) | hERG current change (%, negative = inhibition) at 10uM [%]
Nc1c(C(=O)c2cccs2)oc2ccccc12 | -0.949
COc1ccc(NC(=O)c2cnn3c(C(F)(F)F)cc(-c4ccco4)nc23)cc1OC | 12.5
O=c1cc(O)n(-c2ccccc2)c(=S)[nH]1 | 24
CCCC(=O)NC(=S)c1c(C)n(C)n(-c2ccccc2)c1=O | 25.8
CCOC(=O)c1c(CC(C)C)csc1NC(=O)c1ccccc1C(=O)O | -2.93
Nc1cc(N)nc(SCC(=O)N2CCCCC2)n1 | 4.86
CC(Oc1cc2oc(=O)c3c(c2cc1Cl)CCC3)C(=O)NCC1CCC(C(=O)O)CC1 (centres unmarked) | 8.54
O=C(CCc1ccc(F)c(F)c1)NC1CCCN(Cc2ccc(Cl)cc2)C1 (centres unmarked) | -66
CCOC(=O)C1=C(CSc2nnnn2C)N(C)C(=O)NC1c1ccccc1 (centres unmarked) | 5.85
COC(=O)C1=C(C)C(c2ccc(OC)cc2)NC(=O)N1 (centres unmarked) | 15.3
O=C(N/N=C/c1ccco1)c1ccc(NC(=O)C2CC2)cc1 | 18.2
O=C(CS(=O)(=O)c1ccc(F)cc1)N1CCOCC1 | 12
C=CCNc1nc(SCC=C)nc2ccsc12 | -26.4
CC(=O)Nc1c(C(=O)O)oc2ccc(Cl)cc12 | 2.23
CC(=O)N(c1ccc2oc(=O)sc2c1)S(=O)(=O)c1ccc(C)cc1 | 8.61
CC(C)(C)c1ccc(C(=O)NCCN2CCOCC2)cc1 | 1.01
O=C(Nc1ccc(N2CCCC2)c(Cl)c1)c1ccccc1[N+](=O)[O-] | -9.06
O=C(O)c1ccc2c(=O)n3cc(C(=O)c4ccccc4O)cc(Cl)c3nc2c1 | 1.38
CNc1c(NS(=O)(=O)c2ccc(CC(C)C)cc2)c(=O)oc2ccccc12 | 21.1
CC1CC(C)CN(CCCNC(=O)c2ccc(N3CCCC3=O)cc2)C1 (centres unmarked) | 2.62
Cc1ccc(-n2nc3c(c2NC(=O)CC(C)C)CS(=O)(=O)C3)cc1 | -0.57
CON(C)S(=O)(=O)NC(=O)C1=C(N2CCCC2)COC1=O | 19.3
CC1CCCC(C)N1C(=O)COC(=O)c1cc(-c2cccs2)nn1-c1ccccc1 (centres unmarked) | 2.56

Structure (SMILES) | hERG current change (%, negative = inhibition) at 10uM [%]
CC1CC(C)(C)NC(=S)N1CC(=O)NCc1ccccc1Cl (centres unmarked) | 13.7
COCC(=O)Nc1nnc(Cc2ccc(OC)c(OC)c2)s1 | -7.97
Oc1ccccc1O | 10.6
O=C(C1CCN(S(=O)(=O)c2cccnc2)CC1)N1CCN(C2CCCC2)CC1 | 20.5
O=C(c1n[nH]c2ccccc12)N1CCN(S(=O)(=O)c2ccc(Cl)cc2)CC1 | -6.47
CCCOC1CCCN(C(=O)c2ccc3oc(C(C)C)nc3c2)C1 (centres unmarked) | 3.64
O=C(NCc1ccco1)C(c1ccccc1F)N(CC1CCCO1)C(=O)Cn1nnc2ccccc21 (centres unmarked) | -19.2
COc1cc(C(C)=O)ccc1COc1ccc(C(=O)OCC(=O)NC(C)(C)C)cc1OC | -1.07
COc1cc(-c2cc(C(=O)Nc3ccc(S(=O)(=O)Nc4ncccn4)cc3)c3ccccc3n2)cc(OC)c1OC | -7.01
COc1ccc(OC)c(C2C(C(=O)Nc3ccccc3OC)=C(C)Nc3nc(CCCO)nn32)c1 (centres unmarked) | 13.8
C[C@]12CCC(=O)C[C@H]1CC[C@@H]1[C@@H]2CC[C@]2(C)[C@@H](O)CC[C@@H]12 | -18.7
CC1c2nc3ccccc3n2C(CC(=O)NCc2ccccn2)C(=O)N1Cc1ccccc1 (centres unmarked) | 17.8
O=C(CC1C(=O)NCCN1Cc1cccc(Oc2ccccc2)c1)NCCCn1cccn1 (centres unmarked) | -0.678
O=C(NC(Cc1cccc(F)c1)C(=O)O)C1CCCCC1 (centres unmarked) | 12.7
C/C(=N\OCC(=O)OC(C)C(=O)Nc1ccc(C(N)=O)cc1)c1ccc2c(c1)OCO2 (centres unmarked) | 9.34
Cc1cc(C)nc(Sc2ncnc3sc4c(c23)CCC4)n1 | -3.92
COc1ccc(NC(=O)c2ccccc2N(Cc2ccccc2)S(C)(=O)=O)cc1 | -9.52
Fc1ccc(N2CCN(C(=S)NCc3ccco3)CC2)cc1 | -14
Nc1cc(=O)[nH]c(SCc2cccc3ccccc23)n1 | 16.7
CN(CCCNC(=O)c1ccc(/C=N/O)nc1)CCCN(C)Cc1ccccc1 | -28.2
O=C(CSc1nc2ccccc2o1)c1cc2ccccc2oc1=O | -6.45
O=C(COC(=O)c1ccccc1Nc1ccccc1)NCc1ccccc1 | 2.68
Cc1nn(C)cc1C1C(C#N)=C(N)N(c2cccnc2)C2=C1C(=O)CCC2 (centres unmarked) | 8.05

Structure (SMILES) | hERG current change (%, negative = inhibition) at 10uM [%]
CCN(CC)CCNC(=O)c1cn(CC)c2cc(N3CCN(C)CC3)c(F)cc2c1=O.Cl | 2.96
O=C(O)COc1ccccc1/C=N/NC(=O)c1cc2ccccc2cc1O | 26
CCOC(=O)Nc1sc(NS(=O)(=O)c2ccccc2)nc1C | 11
COc1ccccc1NC(=O)c1cc(Cl)ccc1NC(=O)c1ccco1 | -1.81
CC(C)(C(N)=O)c1ccccc1 | 14.4
Cc1ccsc1/C=N/n1c(-c2ccco2)n[nH]c1=S | 20.7
O=C(COC(=O)c1cc([N+](=O)[O-])ccc1Cl)NC1CCCC1 | -26.8
CCOc1ccsc1C(=O)O | 11
O=C(CN1C(=O)/C(=C\c2ccc(C(F)(F)F)cc2)Sc2ccccc21)NCc1ccco1 | -5.39
N/C(=N\OC(=O)c1cc(Cl)ccc1Cl)c1cccnc1 | 7.89
Cc1sc2nc(CN3CCCC3)nc(NCc3ccncc3)c2c1C | -69.1
S=C(Cc1cccnc1)N1CCOCC1 | 17.8
COc1ccccc1CC(=O)Nc1sc2c(c1C(N)=O)CCCC2 | 10.2
Cc1ccc2c(COC(=O)c3ccc(NC(=O)CC#N)cc3)cc(=O)oc2c1C | 3.63
O=c1[nH]cnc(O)c1C(c1ccc(Br)cc1)c1c(O)nc[nH]c1=O | 13.5
CC1CN/C(=C\C(=O)c2ccc(Br)cc2)C(=O)N1 (centres unmarked) | -3.87
Cc1ccc(C(=O)N2Cc3ccccc3CC2C(=O)O)cc1 (centres unmarked) | -13.9
N/C(=N\c1nc2ccccc2o1)NC(=O)/C=C/c1ccccc1 | 0.904
Cc1ccc(Cn2c(=O)n(-c3ccccc3)c(=O)c3ccc(C(=O)NCc4ccco4)cc32)cc1 | -10.1
Cc1cccc(C)c1NC(=O)CN(C)C(=O)c1ccc2nc[nH]c2c1 | 20.8
